{
  "source": "patent US20260138949A1",
  "about": "“NOVEL COMPOUND AS PHOSPHOLIPASE D INHIBITOR AND USE THEREOF” (UIF (UNIVERSITY INDUSTRY FOUNDATION), YONSEI UNIVERSITY, priority 2022, published 2026)",
  "key": {"[1]": {"tested_on": "MC38 mouse colon cancer cells", "assay": "Orthotopic colon cancer animal model (MC38 cells in cecum)", "format": "in vivo, C57BL6/N mice", "conditions": "oral 10 mg/kg for 2 weeks from 7 days after implantation", "description": "To establish an orthotopic animal model, MC38 mouse colon cancer cells were implanted into the cecum of six-week-old C57BL6/N mice, as shown on the left side of FIG. 6a. For cell implantation, the mice were anesthetized with intraperitoneal injection of 2,2,2-tribromoethanol (avertin), and the cecum was exposed through laparotomy. MC38 cells prepared at 2×10^5 in 50 μL PBS were implanted. Starting from 7 days after cell implantation, compound 1-91 was orally administered at 10 mg/kg for 2 weeks to confirm the antitumor effects."}, "[2]": {"tested_on": "human colon cancer cell line DLD1", "assay": "Cell cycle analysis (BrdU/7-AAD flow cytometry) in cancer cells", "format": "cell-based", "conditions": "DLD1, compound 1-91 2 μM, 48 hours", "description": "(§1) To observe cell cycle changes, normal colon epithelial cells (FHC) and human colon cancer cell line DLD1 were treated with compound 1-91 at 2 μM and the positive control 5-FU at 10 μM. After 48 hours, the cells were washed with PBS, harvested, and sequentially treated with bromodeoxyuridine (BrdU) and 7-aminoactinomycin D (7-AAD). The cells were then stained with an anti-BrdU antibody conjugated with fluorescein isothiocyanate (FITC) and analyzed using a flow cytometer."}, "[3]": {"tested_on": "phospholipase D1", "assay": "PLD activity in HCT116 cells ([3H]phosphatidylbutanol, TLC)", "format": "cell-based, human", "conditions": "compound 10 μM, cells without the compound = 100%", "description": "To evaluate the inhibitory effect of the compounds according to the present invention on phospholipase D1 activity, experiments were conducted as follows.\nFor the analysis of PLD activity in cells, human colon cancer cell line (HCT116) was cultured in a 6-well plate at 37° C. for 24 hours, washed twice with phosphate-buffered saline (PBS), and then replaced with medium containing [^3H]myristate and cultured for 24 hours. After the culture, the cells were washed three times with PBS, treated with 1-butanol, and the drug was added to a final concentration of 10 μM. The cells were trypsinized and suspended, and the amount of [^3H]phosphatidylbutanol produced in the cell suspension was measured and evaluated for PLD activity using thin layer chromatography (TLC), and the results are shown in Table 1 below.\nThe Remaining activity % at 10 μM in Table 1 is calculated by setting the amount of [^3H]phosphatidylbutanol produced in cells without the compound as 100% and calculating the amount of [^3H]phosphatidylbutanol produced in cells treated with the compound as a percentage. Therefore, the lower the value of Remaining activity %, the higher the PLD inhibitory activity."}, "[4]": {"tested_on": "PLD1", "assay": "PLD activity in mouse embryonic fibroblasts from normal, PLD1 knockout and PLD2 knockout mice", "format": "cell-based", "conditions": "different concentrations; PLD activity decreased first in PLD2 knockout fibroblasts"}, "[5]": {"tested_on": "AOM/DSS inflammatory colon cancer", "assay": "Inflammatory colon cancer animal model (AOM/DSS model)", "format": "in vivo, C57BL6/N mice", "conditions": "oral 10 mg/kg every other day for 45 days", "description": "To establish an inflammatory colon cancer animal model, six-week-old C57BL6/N mice were intraperitoneally injected with azoxymethane (AOM) at 10 mg/kg on day 0, followed by administration of 2.5% dextran sulfate sodium (DSS) in drinking water for 5 days and a 15-day recovery period. This DSS cycle was repeated four times. To confirm the effects of the compound in the inflammatory colon cancer animal model, the compound was orally administered at 10 mg/kg every other day for 45 days. After the administration period, the animals were euthanized, and the small intestines were used to prepare paraffin blocks of the intestinal tissue using the Swiss rolling method. The sections were stained with hematoxylin and eosin (H&E)."}, "[6]": {"biological_target": "PLD2 (Homo sapiens, UniProt O14939)", "sequence (O14939 whole entry, species assumed)": "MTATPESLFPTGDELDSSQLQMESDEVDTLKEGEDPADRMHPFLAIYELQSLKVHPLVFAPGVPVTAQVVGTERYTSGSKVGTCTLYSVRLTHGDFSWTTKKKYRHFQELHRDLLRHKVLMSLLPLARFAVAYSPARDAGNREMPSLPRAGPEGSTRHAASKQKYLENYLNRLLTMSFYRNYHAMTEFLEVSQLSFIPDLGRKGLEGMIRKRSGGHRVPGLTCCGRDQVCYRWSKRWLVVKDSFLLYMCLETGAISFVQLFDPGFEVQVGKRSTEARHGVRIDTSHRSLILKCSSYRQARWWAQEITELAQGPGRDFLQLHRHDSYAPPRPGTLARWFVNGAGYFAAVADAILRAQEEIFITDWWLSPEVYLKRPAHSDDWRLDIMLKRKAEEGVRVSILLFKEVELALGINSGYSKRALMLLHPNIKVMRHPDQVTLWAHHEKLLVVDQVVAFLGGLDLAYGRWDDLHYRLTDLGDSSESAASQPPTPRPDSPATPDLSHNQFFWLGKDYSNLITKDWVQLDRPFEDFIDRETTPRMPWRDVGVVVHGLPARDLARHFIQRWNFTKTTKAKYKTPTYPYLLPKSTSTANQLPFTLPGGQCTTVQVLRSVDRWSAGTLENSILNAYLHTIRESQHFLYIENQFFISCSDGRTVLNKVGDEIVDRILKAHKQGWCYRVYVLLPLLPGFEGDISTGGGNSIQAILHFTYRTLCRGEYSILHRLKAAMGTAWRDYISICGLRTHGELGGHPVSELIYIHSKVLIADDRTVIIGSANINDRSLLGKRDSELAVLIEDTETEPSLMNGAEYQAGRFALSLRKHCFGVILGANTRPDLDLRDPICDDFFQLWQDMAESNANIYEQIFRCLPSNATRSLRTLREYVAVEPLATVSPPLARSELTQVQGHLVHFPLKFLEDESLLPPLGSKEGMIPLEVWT", "assay": "PLD activity in HCT116 cells overexpressing PLD2", "conditions": "2 μM"}, "[7]": {"biological_target": "T1, PLD1 (Homo sapiens, UniProt Q13393)", "T1 sequence (Q13393 1-1074)": "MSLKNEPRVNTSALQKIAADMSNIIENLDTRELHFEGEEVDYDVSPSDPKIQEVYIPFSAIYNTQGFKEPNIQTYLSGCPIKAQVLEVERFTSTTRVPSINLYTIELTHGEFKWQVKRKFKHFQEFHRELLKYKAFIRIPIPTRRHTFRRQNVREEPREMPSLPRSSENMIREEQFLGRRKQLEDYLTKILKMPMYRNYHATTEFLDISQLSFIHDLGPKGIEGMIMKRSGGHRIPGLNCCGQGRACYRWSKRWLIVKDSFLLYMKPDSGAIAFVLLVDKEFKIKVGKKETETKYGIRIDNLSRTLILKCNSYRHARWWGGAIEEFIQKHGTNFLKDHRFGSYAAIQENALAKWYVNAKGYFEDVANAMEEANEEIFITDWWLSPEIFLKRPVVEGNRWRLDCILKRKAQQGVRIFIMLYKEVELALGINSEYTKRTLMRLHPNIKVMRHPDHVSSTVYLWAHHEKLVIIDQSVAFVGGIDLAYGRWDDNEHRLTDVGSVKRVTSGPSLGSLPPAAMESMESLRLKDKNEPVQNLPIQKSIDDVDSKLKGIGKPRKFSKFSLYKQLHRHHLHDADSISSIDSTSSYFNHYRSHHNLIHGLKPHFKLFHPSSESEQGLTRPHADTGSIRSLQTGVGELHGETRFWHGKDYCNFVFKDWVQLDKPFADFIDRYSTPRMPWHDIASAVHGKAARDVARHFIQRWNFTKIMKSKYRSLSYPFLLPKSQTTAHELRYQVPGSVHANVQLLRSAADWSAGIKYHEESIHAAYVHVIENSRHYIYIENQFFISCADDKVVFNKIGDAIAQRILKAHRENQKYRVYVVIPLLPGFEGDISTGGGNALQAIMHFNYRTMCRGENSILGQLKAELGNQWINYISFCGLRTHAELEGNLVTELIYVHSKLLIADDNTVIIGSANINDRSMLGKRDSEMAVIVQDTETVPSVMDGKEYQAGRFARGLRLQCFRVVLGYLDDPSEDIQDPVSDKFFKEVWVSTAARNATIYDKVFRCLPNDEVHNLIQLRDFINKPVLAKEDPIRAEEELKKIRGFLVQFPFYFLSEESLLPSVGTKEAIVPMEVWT", "assay": "PLD activity in HCT116 cells overexpressing PLD1", "conditions": "2 μM, HCT116 overexpressing PLD1, compared with VU0155069"}, "[8]": {"tested_on": "normal colon epithelial cells (FHC)", "assay": "Apoptosis (annexin V-FITC) in normal cells", "format": "cell-based", "conditions": "compound 1-91 2 μM, 48 hours", "description": "(§2) To observe changes in apoptosis, normal colon epithelial cells (FHC) and human colon cancer cell line (DLD1) were treated with compound 1-91 at 2 μM and the positive control 5-FU at 10 μM. After 48 hours, the cells were washed with PBS, harvested, and analyzed for apoptosis using an annexin V-FITC apoptosis detection kit."}, "[9]": {"tested_on": "normal colon epithelial cells (FHC)", "assay": "Cell cycle analysis (BrdU/7-AAD flow cytometry) in normal cells", "format": "cell-based", "conditions": "compound 1-91 2 μM, 48 hours", "description": "as §1"}, "[10]": {"tested_on": "human colon cancer cell line (DLD1)", "assay": "Apoptosis (annexin V-FITC) in cancer cells", "format": "cell-based", "conditions": "DLD1, compound 1-91 2 μM, 48 hours", "description": "as §2"}},
  "data": [
    {"smiles": "O=C(Nc1cc(C(F)(F)F)cc(C(F)(F)F)c1)c1cc2cc(F)ccc2[nH]1", "note": "[Example 1-91, N-(3,5-bis(trifluoromethyl)phenyl)-5-fluoro-1H-indole-2-carboxamide]", "values": [
      {"measurement": "survival", "setting": "[1]", "value": "significant increase in survival"},
      {"measurement": "tumor size in the cecum", "setting": "[1]", "value": "significantly reduced"},
      {"measurement": "cell cycle arrest, cancer cells", "setting": "[2]", "value": "specifically arrested the cell cycle at the G0/G1 phase only in cancer cells"},
      {"measurement": "Remaining activity % at 10 μM", "setting": "[3]", "value": 20.62, "unit": "%"},
      {"measurement": "PLD activity, isoform specificity", "setting": "[4]", "value": "specifically inhibits PLD1"},
      {"measurement": "cancer tissues in H&E stained intestinal sections", "setting": "[5]", "value": "almost disappeared"},
      {"measurement": "incidence of tumors", "setting": "[5]", "value": "significantly reduced"},
      {"measurement": "size of tumors", "setting": "[5]", "value": "significantly reduced"},
      {"measurement": "survival", "setting": "[5]", "value": "significantly increased"},
      {"measurement": "PLD2 inhibitory effect", "setting": "[6]", "value": "no PLD2 inhibitory effect"},
      {"measurement": "PLD1 inhibitory effect", "setting": "[7]", "value": "equal to or greater than that of the positive control VU0155069"},
      {"measurement": "apoptosis, normal cells", "setting": "[8]", "value": "only in cancer cells"},
      {"measurement": "cell cycle arrest, normal cells", "setting": "[9]", "value": "only in cancer cells"},
      {"measurement": "apoptosis, cancer cells", "setting": "[10]", "value": "specifically and significantly induced apoptosis only in cancer cells"}
    ]}
  ]
}
